# Laboratory results: US12036189B2, “Method of treating major depressive disorder” (priority 2018, dated 2024)
# System: bone marrow cells of Crl:CD(SD) rats
# Assay: Mammalian erythrocyte micronucleus test
# Conditions: male or female rats, oral gavage
smiles,measurement,value
"CN[C@]1(c2ccccc2Cl)CCCCC1=O [esketamine, (2S)-2-(2-Chlorophenyl)-2-(methylamino) cyclohexanone]",induction of micronucleated polychromatic erythrocytes or bone marrow cell toxicity (study conclusion),not shown any evidence
